The test system of the series is ATP. The series is described as follows: switch fluorescence ratio, 500 uM ATP over buffer (Cy3 cluster intensity, sum of 5 cycles each) (fold (ratio)); higher = stronger signal-on switching upon ATP binding; sequences stand for … in TCGTCGGCAGCGTCAGATGTGTATAAGAGACAGTTTTTTTTTTTTTTTTTTTTTTTTT…TC. The settings on record: aptamer strand: ATP DNA aptamer (quencher-CACCTGGGGGAGTATTGCGGAGGAAGG + anchor), 100 nM annealed; ATP concentration: 500 uM; one replicate. The procedure, abridged:
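Per cluster, summed Cy3 intensity from the target cycles was divided by that from the buffer cycles to give the fluorescence ratio, then averaged per switch-domain sequence. Clusters outside 100-1000 RFU were excluded. The Cy3-labelled switching-strand clusters, on a modified Illumina MiSeq flow-cell, were annealed to 100 nM quencher-labelled ATP aptamer and imaged in selection buffer, then after 15 min with 500 uM ATP at 22 °C, for five cycles with NaOH stripping and re-annealing between them.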

Values marked as one replicate rest on one cluster of the flow cell; about a third of the high ones do not repeat.

Here are results for 120 sequences from the supplement of paper PMC10126150.
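Note: ATP exposure 15 min at 22 °C before imaging.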

Consider GCCATGTGAG, for which the switch fluorescence ratio worked out at 0.996.

With TCCCGGGCGT, the switch fluorescence ratio came out at 1.12.

For CACGCCAAAT, the switch fluorescence ratio stood at 1.17.

With GTCAGTGGG, the switch fluorescence ratio was 0.995.

Consider GAGAGGTTGG, for which the switch fluorescence ratio came out at 1.01.

For the sequence GATGATCGAA, the switch fluorescence ratio came out at 1.04.

On to CGACACCTTA, for which the switch fluorescence ratio amounted to 1.09.

Regarding AAGACACGTT, the switch fluorescence ratio was 0.973.

For the sequence CACCCACGGG, the switch fluorescence ratio turned out to be 1.4.

With TGCCTATGTG, the switch fluorescence ratio is 1.04.

With GTGATGAAGT, the switch fluorescence ratio amounted to 1.02.

As to CCGCTCAGTG, the switch fluorescence ratio was 1.73.

Turning to CCTCATGATT, the switch fluorescence ratio is 1.06.

For the sequence GTGTCTAGAT, the switch fluorescence ratio amounted to 0.988.

For the sequence CCCTAGCGCG, the switch fluorescence ratio was 1.01.

Turning to TGATAGGATG, the switch fluorescence ratio came out at 0.965.

Turning to CCTAGTTTCT, the switch fluorescence ratio came to 0.973.

With TATCTCGAGG, the switch fluorescence ratio came to 1.01.

As to TTGGCGAAGC, the switch fluorescence ratio worked out at 1.02.

Regarding ACAGGGAACT, the switch fluorescence ratio stood at 1.04.

With AACTGCCGTT, the switch fluorescence ratio stood at 1.02.

For ATTCAGGACA, the switch fluorescence ratio is 1.02.

Turning to ACGTGCTGTC, the switch fluorescence ratio came out at 0.977.

Consider GCCTGAGGTC, for which the switch fluorescence ratio was 0.992.

On to GTAAAAACAT, for which the switch fluorescence ratio turned out to be 1.03.

With GTTACGGAAC, the switch fluorescence ratio was determined as 1.03.

With ACCGGGTTAC, the switch fluorescence ratio was found to be 1.1.

As for TCCGTTAGCT, the switch fluorescence ratio was 1.52.

As to TAGGATGACT, the switch fluorescence ratio worked out at 0.985.

Consider TATAACGTG, for which the switch fluorescence ratio was 0.993.

In the case of TACCTCGGGA, the switch fluorescence ratio was determined as 1.01.

With CTGGGATG, the switch fluorescence ratio turned out to be 1.04.

Take AATACGTAA: the switch fluorescence ratio was 1.35.

For the sequence TATGTGCCGG, the switch fluorescence ratio turned out to be 1.06.

Regarding GGTCAGGGAT, the switch fluorescence ratio stood at 1.01.

Turning to TGGTGTGACC, the switch fluorescence ratio was determined as 1.04.

With GATCGTGCGC, the switch fluorescence ratio came to 0.991.

Consider CGTGTTACTA, for which the switch fluorescence ratio turned out to be 0.988.

As for TTCGACCTGT, the switch fluorescence ratio was 0.995.

In the case of CGTCCCTAGG, the switch fluorescence ratio came to 2.01.

In the case of CGCAACGCAC, the switch fluorescence ratio is 1.92.

Turning to ATTTAATAGG, the switch fluorescence ratio was 1.02.

In the case of CGGAAATTAT, the switch fluorescence ratio is 1.04.

With TGGCCTTAAA, the switch fluorescence ratio came to 0.962.

Regarding GTTTTATATT, the switch fluorescence ratio was determined as 1.02.

As to GACAACCTGT, the switch fluorescence ratio came to 0.987.

In the case of AATGGGGCGA, the switch fluorescence ratio came out at 0.991.

TTGTGCACAC: the switch fluorescence ratio worked out at 1.01.

As to AGATGAGCAA, the switch fluorescence ratio turned out to be 1.07.

In the case of TCATAGCCGA, the switch fluorescence ratio was 1.04.

For GAAGCATGCA, the switch fluorescence ratio is 1.01.

With ACTGGCTGCC, the switch fluorescence ratio came to 1.03.

For the sequence CGCTTTAAGG, the switch fluorescence ratio stood at 1.03.

Take AACCGCGTAG: the switch fluorescence ratio was found to be 1.11.

As to GAGCGGGAGG, the switch fluorescence ratio came to 1.

Turning to TTCATAGTTG, the switch fluorescence ratio amounted to 0.963.

Take CCGTTGAGCA: the switch fluorescence ratio is 1.88.

With TTTGTGCACG, the switch fluorescence ratio amounted to 0.961.

On to TTGGTGGCCG, for which the switch fluorescence ratio came to 1.04.

Regarding TTAGGTATCC, the switch fluorescence ratio came out at 0.999.

For TGTCTGCCGT, the switch fluorescence ratio was 0.967.

With AAATACATGT, the switch fluorescence ratio was determined as 1.03.

As for TAGGTGCCGG, the switch fluorescence ratio was determined as 0.988.

For the sequence TCCTGATGC, the switch fluorescence ratio amounted to 1.14.

On to GTGAGGCAG, for which the switch fluorescence ratio amounted to 1.01.

For the sequence TACGTAGCG, the switch fluorescence ratio turned out to be 1.07.

On to CCTCGCTGCG, for which the switch fluorescence ratio worked out at 1.53.

Take CTGATCATAG: the switch fluorescence ratio was determined as 0.984.

With CCGTTTGCTC, the switch fluorescence ratio is 1.84.

Consider CGGTAAGGTA, for which the switch fluorescence ratio is 0.955.

CGCTTAGTTG: the switch fluorescence ratio is 1.05.

As for ACGATAAATG, the switch fluorescence ratio came out at 1.11.

TCTGGTTCCC: the switch fluorescence ratio was 1.02.

Turning to AATAACCGGA, the switch fluorescence ratio is 1.03.

Take CGAGTCTGG: the switch fluorescence ratio was 0.945.

On to GGAGGGTTGA, for which the switch fluorescence ratio amounted to 1.03.

In the case of TCTGTCCAGT, the switch fluorescence ratio came out at 1.01.

Consider GCCTGATAG, for which the switch fluorescence ratio amounted to 0.978.

Consider TTGGTCTTCT, for which the switch fluorescence ratio came out at 0.95.

Take AGGGTGGAGG: the switch fluorescence ratio turned out to be 1.05.

Take CATATAATGT: the switch fluorescence ratio is 1.02.

In the case of GGATGAAAGG, the switch fluorescence ratio worked out at 1.02.

With CATGTTGAA, the switch fluorescence ratio worked out at 0.955.

Take TAATTCAAAA: the switch fluorescence ratio is 1.01.

As for ACTATTTGGC, the switch fluorescence ratio came out at 0.958.

As for TATAAAATAT, the switch fluorescence ratio is 0.981.

Consider CCCTTAAGGC, for which the switch fluorescence ratio amounted to 1.

GTTGTGGGAT: the switch fluorescence ratio came out at 0.995.

In the case of CGGCGGCGAG, the switch fluorescence ratio came out at 0.981.

Consider TTGGGGCTA, for which the switch fluorescence ratio turned out to be 1.02.

Take CAGATTGACT: the switch fluorescence ratio is 0.981.

TAGTTATACT: the switch fluorescence ratio was determined as 1.05.

As to CGCATATTGG, the switch fluorescence ratio turned out to be 1.31.

As for TTGCTTTCCA, the switch fluorescence ratio amounted to 1.03.

As for ACGTGAAAAC, the switch fluorescence ratio came out at 1.88.

On to ATTTTACATG, for which the switch fluorescence ratio stood at 0.982.

As for TGCGGGTGCG, the switch fluorescence ratio turned out to be 0.989.

On to TTAAAGAACT, for which the switch fluorescence ratio turned out to be 1.01.

Consider TGTTACAGCT, for which the switch fluorescence ratio was determined as 1.04.

Regarding CAACCGGACT, the switch fluorescence ratio amounted to 1.19.

As to TATCCTCGTT, the switch fluorescence ratio was 1.02.

GGTCGATGTC: the switch fluorescence ratio was 1.14.

For the sequence GGTTAGACCA, the switch fluorescence ratio amounted to 1.06.

Consider GATCACTACC, for which the switch fluorescence ratio was found to be 1.17.

With ACGGCAAGAA, the switch fluorescence ratio is 1.62.

In the case of AGCAAGAAGT, the switch fluorescence ratio is 1.03.

AACCACCATC: the switch fluorescence ratio was 1.09.

Consider TAACTGTCCA, for which the switch fluorescence ratio was 1.

Consider GCATAATATT, for which the switch fluorescence ratio came out at 0.992.

Turning to TGGCCGAGAA, the switch fluorescence ratio is 0.985.

Consider TACAGTTCCC, for which the switch fluorescence ratio amounted to 1.02.

On to CTAATGTGAT, for which the switch fluorescence ratio is 0.98.

AGTGCGGCCA: the switch fluorescence ratio worked out at 1.01.

Consider ACTAACTGGA, for which the switch fluorescence ratio was determined as 1.11.

TAGGTCGGAG: the switch fluorescence ratio was 0.971.

Consider AGATATTCCA, for which the switch fluorescence ratio was 1.03.

As for GCCTTGACGT, the switch fluorescence ratio came out at 1.07.

In the case of GGCTGCATAA, the switch fluorescence ratio was 1.12.

Take GCTGTCCTAA: the switch fluorescence ratio turned out to be 0.974.

Regarding TATCCATTTT, the switch fluorescence ratio worked out at 1.
